Data reported in PubChem BioAssay AID485367 (National Center for Advancing Translational Sciences (NCATS), 2010).
Hit rate of the full screen: of about 330,000 compounds, about 560 (0.17%) were called active. This list was built around the results that the source calls inconclusive (neither active nor inactive); the mix of calls is not that of the screen. The call rests on the fitted dose curve; in most records, active means well fitted inhibition curve with a large enough effect; inconclusive means small, poorly fitted or top-dose-only effect, or effect the other way; inactive means flat fitted curve, though single readings scatter. No potency is given beside an inconclusive call; the fits are too rough.
Further: nearly all actives have a fitted effect of over 60% in size.
Potency means the concentration at half of the fitted maximal effect; tags describe the fitted curve by direction and shape.
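Wherever activity, negative = inhibition is given: 0% = uninhibited 1x PFK enzyme wells and -100% = no-enzyme wells.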

Each compound was assayed against ATP-dependent 6-phosphofructokinase (Trypanosoma brucei brucei) (UniProt O15648) (assay: qHTS Assay to Find Inhibitors of T. brucei phosphofructokinase). Conditions: T. brucei PFK, ADP-Glo luminescence; activity, negative = inhibition: at 57.5 µM (top of the series).
UniProt O15648, sequence (O15648 whole entry, looked up): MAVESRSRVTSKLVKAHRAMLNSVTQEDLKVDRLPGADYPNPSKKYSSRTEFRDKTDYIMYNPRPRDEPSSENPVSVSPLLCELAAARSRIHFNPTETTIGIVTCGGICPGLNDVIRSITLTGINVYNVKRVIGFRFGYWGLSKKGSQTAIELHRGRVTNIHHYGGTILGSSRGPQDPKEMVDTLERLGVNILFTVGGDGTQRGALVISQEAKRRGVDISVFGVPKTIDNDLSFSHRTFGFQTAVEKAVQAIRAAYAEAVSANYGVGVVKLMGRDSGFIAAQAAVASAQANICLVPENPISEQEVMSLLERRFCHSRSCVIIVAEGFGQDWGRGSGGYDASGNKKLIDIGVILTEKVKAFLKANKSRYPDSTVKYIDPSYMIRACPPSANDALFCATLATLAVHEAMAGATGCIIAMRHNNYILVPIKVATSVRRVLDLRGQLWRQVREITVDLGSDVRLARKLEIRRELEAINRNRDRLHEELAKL
Procedure, shortened: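 Luminescent ADP detection (ADP-Glo, two-step: ATP depletion then ADP-to-ATP conversion for luciferase) reported PFK activity after 45 min room-temperature reaction of 1.25 nM enzyme with 0.5 mM F6P and 0.1 mM ATP at pH 8.0.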
With `Cc1ccc(NC(=O)c2cc(C)nc3ccccc23)c(C)c1` the “activity, negative = inhibition” value was inactive: -0.884%.
For `Cc1ccc(C(=O)O)cc1-c1ccc(/C=C2/NC(=O)N(c3ccccc3)C2=O)o1`, the “activity, negative = inhibition” value was inactive: -10.5%.
For `CCc1ccc(NC(=O)C(=O)NNC(=O)c2cccs2)cc1`, the Potency was inconclusive [activator, partial curve].
`Cc1ccc(NC(=O)COC(=O)c2ccc(S(=O)(=O)NCc3ccco3)cc2)cc1` was tested, and the Potency was inconclusive [falling, single point].
In the case of `Clc1ccc(Cn2cc(Br)cn2)cc1Cl`, the Potency is reported as active: 23.9 µM.
In the case of `CC(=O)CCc1oc2ccc(NC(C)=O)cc2c1-c1ccc(C)o1`, the “activity, negative = inhibition” value is reported as inactive: -4.82%.
For `Cc1ccc(NC(=O)CN2C(=O)S/C(=C/c3ccc(O)c([N+](=O)[O-])c3)C2=O)cc1C`, the Potency was inconclusive [falling, single point].
`O=C(Cc1ccc(Cl)c(Cl)c1)Nc1ccc(SC(F)F)cc1` was tested, and the Potency was inconclusive [falling, partial curve].
With `CC(C)(C)NC(=O)NC(=O)CN1CCN(c2ccc(O)cc2)CC1` the Potency was inconclusive [falling, partial curve].
In the case of `O=C(O)c1cc2nccc(-c3ccc(F)cc3)n2n1`, the Potency is reported as inconclusive [falling, partial curve].
`NS(=O)(=O)c1ccc(NC(=O)CSc2ccccc2)cc1` was tested, and the Potency was active: 15.1 µM.
`COC(=O)c1ccc(CSc2cc(C)c3ccccc3n2)o1` was tested, and the “activity, negative = inhibition” value was inactive: -1.11%.
For `CC1=NN(c2ccccc2)C(=O)/C1=C\c1sccc1C`, the Potency was inconclusive [falling, full curve, poor fit].
In the case of `O=C(NCc1ccco1)c1cccc(-c2nnc(-c3ccccc3)o2)c1`, the Potency is reported as inconclusive [activator, partial curve, poor fit].
For `CCSc1nnc2ccc(-c3ccc(OC)c(OC)c3)nn12`, the “activity, negative = inhibition” value was inactive: 1.6%.
For `O=C(CNC1C(=O)Nc2ccccc21)Sc1ccccc1` (stereo not drawn), the “activity, negative = inhibition” value was inactive: 26.2%.
For `COc1ccc(NC(=O)N(C)C[C@H]2Oc3ccc(NS(=O)(=O)c4cccs4)cc3C(=O)N([C@H](C)CO)C[C@@H]2C)cc1`, the Potency was inconclusive [falling, single point].
For `COC(=O)C1SCC2C(=O)N(Cc3ccc(Cl)c(Cl)c3)CC(=O)N21` (stereo not drawn), the Potency was inconclusive [falling, partial curve, poor fit].
For `O=C(CSc1nc2cc(Cl)ccc2s1)NC(=O)NCc1ccco1`, the Potency was inconclusive [falling, single point].
For `COc1ccc(Nc2nc(N)c(C(=O)c3ccc(F)cc3)s2)cc1`, the “activity, negative = inhibition” value was inactive: -17.5%.
With `COCCCNC(=O)CN1C(=O)CSc2ncccc21` the Potency was inconclusive [falling, single point].
`CCOC(=O)Cc1csc(SCC(=O)Nc2ccc3[nH]c(=O)[nH]c3c2)n1` was tested, and the Potency was inconclusive [falling, single point].
For `CC(C)CCNC(=O)Cn1c(=O)oc2cc(S(=O)(=O)N3CCc4ccccc43)ccc21`, the “activity, negative = inhibition” value was inactive: 5.76%.
For `COc1cc(C(=O)NC(=S)NNC(=O)[C@H]2C[C@@H]2c2ccccc2)cc(OC)c1OC`, the Potency was inconclusive [falling, single point].
With `COc1cc(OC)cc(C(=O)NC(=S)Nc2ccc(N3CCCC3)cc2)c1` the Potency was inconclusive [falling, partial curve].
With `CC(=O)Nc1sc(C)c(C)c1C(=O)OC(C)C` the Potency was inconclusive [falling, single point].
`CCOc1ccc(NC(=O)c2ccncc2)cc1` was tested, and the “activity, negative = inhibition” value was inactive: -0.804%.
For `CNc1snc(C)c1C(=O)OCC(=O)Nc1ccc(C)cc1F`, the “activity, negative = inhibition” value was inactive: -4.21%.
`O=C(NCc1ccco1)/C(=C\c1cccs1)NC(=O)c1ccco1` was tested, and the “activity, negative = inhibition” value was inactive: 1.37%.
For `COc1ccc(-c2cn(Cc3ccc(C(=O)NCc4ccc(C)cc4)cc3)c(C(C)N)n2)cc1` (stereo not drawn), the Potency was inconclusive [activator, partial curve].
In the case of `CCOC(=O)C1C(c2cc(OC)c(O)c(OC)c2)NC(=S)NC1(O)C(F)(F)F` (stereo not drawn), the Potency is reported as inconclusive [falling, single point].
With `O=C(CSc1ccc(F)cc1)Nc1cccc(S(=O)(=O)N2CCOCC2)c1` the Potency was inconclusive [falling, single point].
For `c1cncc(Cc2cc3ccccc3[nH]2)c1`, the Potency was inconclusive [falling, partial curve].
For `CCN(C(=O)CN1CCCCCC1)c1c(N)n(Cc2ccccc2)c(=O)[nH]c1=O`, the “activity, negative = inhibition” value was inactive: 2.39%.
In the case of `O=C1c2ccccc2NC(c2cccc(F)c2)N1Cc1ccco1` (stereo not drawn), the Potency is reported as inconclusive [falling, single point].
For `CCOc1cc(N2CCOCC2)c(OCC)cc1NC(=O)CSc1cccc[n+]1[O-]`, the Potency was inconclusive [falling, single point].
With `Cc1ccc(C(C)(C)C)c(OCCCn2ccnc2)c1` the Potency was inconclusive [falling, single point].
With `O=C1NC(=O)C2C1C(c1ccccc1)N1C3C(=O)NC(=O)C3C(c3ccccc3)N21` (stereo not drawn) the Potency was inconclusive [falling, partial curve].
For `COc1cccc(NC(=O)CSc2ncnc3c2oc2ccccc23)c1`, the “activity, negative = inhibition” value was inactive: -7.18%.
For `CC1(C)CC(=O)c2cc3c(nc2C1)CC(C)(C)CC3=O`, the “activity, negative = inhibition” value was inactive: 2.38%.
For `Cc1cc(C)c2cc(CNC3CCCC3)c(Cl)nc2c1`, the Potency was inconclusive [falling, single point].
With `CCCc1nnc(SCC(=O)N2CCCC2)n1CC1CCCO1` (stereo not drawn) the Potency was inconclusive [falling, single point].
With `O=C(Cn1ccc2ccccc2c1=O)NCCC(=O)N1CCN(c2cccc(Cl)c2)CC1` the Potency was active: 23.9 µM.
`CC(C)Cn1c(N)c(C(=O)COC(=O)c2cc(-c3ccco3)nc3ccccc23)c(=O)n(C)c1=O` was tested, and the Potency was inconclusive [falling, full curve].
`COc1ccc(-c2nnc3ccc(SCC(=O)NCc4ccco4)nn23)cc1` was tested, and the Potency was inconclusive [falling, single point].
`O=C(C1CCN(c2nnc(-n3cccc3)s2)CC1)N1CCN(Cc2ccc3c(c2)OCO3)CC1` was tested, and the Potency was inconclusive [falling, single point].
For `CC(C(=O)NCC(=O)Nc1ccc(F)c(F)c1F)N1CCN(c2ccc(O)cc2)CC1` (stereo not drawn), the Potency was inconclusive [falling, partial curve].
In the case of `O=C(O)CCc1nn2cc(-c3ccccc3)nc2[nH]c1=O`, the Potency is reported as inconclusive [activator, partial curve].
`O=C(CCCC(=O)c1ccc(F)cc1)c1ccc(F)cc1` was tested, and the “activity, negative = inhibition” value was inactive: -6.56%.
`N#Cc1c(SCC(=O)Nc2nc3ccccc3s2)sc2c(O)cc(=O)[nH]c12` was tested, and the “activity, negative = inhibition” value was inactive: 9.4%.
`COc1ccc(N2C(=O)CC(Sc3nnnn3-c3ccc(F)cc3)C2=O)cc1` (stereo not drawn) was tested, and the “activity, negative = inhibition” value was inactive: 4.47%.
With `NC(N)=NC(N)=Nc1cccc(Cl)c1` the Potency was inconclusive [falling, single point].
For `CCNC(=O)COC(=O)C1C(C(=O)OCC)=C(C)NC(C)=C1C(=O)OCC`, the “activity, negative = inhibition” value was inactive: -1.52%.
With `Nc1nonc1C(=O)N/N=C/c1ccc(-c2cccc(C(=O)O)c2)o1` the Potency was inconclusive [activator, single point].
In the case of `CC1=C(C(=O)Nc2ccccc2)C(c2ccc(Cl)cc2)n2c(s/c(=C/c3cccc(OCC(=O)O)c3)c2=O)=N1` (stereo not drawn), the Potency is reported as inconclusive [falling, single point].
`O=P(O)(O)CP(=O)(O)O` was tested, and the Potency was inconclusive [falling, full curve, poor fit].
In the case of `O=C(CN1CCN(c2ccc(O)cc2)CC1)NCC(=O)Nc1ccc(F)c(F)c1F`, the Potency is reported as inconclusive [falling, single point].
`Cc1ccc(C)c(S(=O)(=O)N2CCCOC2CNC(=O)C(=O)NCCCn2ccnc2)c1` (stereo not drawn) was tested, and the Potency was inconclusive [falling, single point].
In the case of `Cc1cc(C)c(NC(=S)NC(NC(=O)c2ccccc2)C(Cl)(Cl)Cl)c(C)c1` (stereo not drawn), the “activity, negative = inhibition” value is reported as inactive: 1.26%.
In the case of `O=C(Nc1ccccc1)N1CCc2scc[n+]2-c2ccccc21`, the Potency is reported as inconclusive [falling, single point].
For `COc1ccc(C(=O)Oc2c(OC)cc(C(=S)N3CCOCC3)cc2OC)cc1OC`, the “activity, negative = inhibition” value was inactive: -23.5%.
With `Cc1cccc(C(C)C)c1NC(=O)c1ccc(COc2ccc3c(C)cc(=O)oc3c2)cc1` the Potency was inconclusive [falling, single point].
With `O=C(COC(=O)c1ccc(O)cc1)Nc1ccc2[nH]c(=O)[nH]c2c1` the Potency was inconclusive [falling, single point].
In the case of `COc1cccc(NC(=O)CCS(=O)(=O)c2cc3c(cc2Cl)NC(=O)CO3)c1`, the “activity, negative = inhibition” value is reported as inactive: -1.92%.
For `CCOC(=O)c1c(NC(=O)CN2C(=O)NC(C)(c3ccc(Cl)cc3)C2=O)sc(C(=O)NC)c1C` (stereo not drawn), the “activity, negative = inhibition” value was inactive: -4.33%.
`O=C(NCc1nnc(SCC(=O)N2CCc3ccccc32)o1)c1ccco1` was tested, and the “activity, negative = inhibition” value was inactive: -4.35%.
In the case of `CN(C)S(=O)(=O)c1ccc(N2CCCC2)c(C(=O)NNC(=O)COc2cccc(F)c2)c1`, the “activity, negative = inhibition” value is reported as inactive: 0.453%.
With `CCOC1=C/C(=C/c2c(N)n3nc(-c4ccccc4)sc3nc2=O)C=CC1=O` the “activity, negative = inhibition” value was inactive: -0.0142%.
For `CC(=O)N1CCc2c(sc3c2c(=O)n(-c2ccccc2)c(=O)n3Cc2ccccc2Cl)C1`, the “activity, negative = inhibition” value was inactive: -5.35%.
With `COc1cccc(NC(=S)N2CCC(c3ccc(C)cc3)C2)c1` (stereo not drawn) the “activity, negative = inhibition” value was inactive: -8.89%.
With `C=C1C(=O)[C@@]23[C@H](O)C[C@@H]4C(C)(C)CC[C@H](O)[C@]4(C)[C@@H]2C[C@H](O)[C@@H]1[C@H]3O` the “activity, negative = inhibition” value was inactive: 9.4%.
With `Cc1ccc(NC(=O)CCCN2C(=O)/C(=C/C=C/c3ccccc3)SC2=S)cc1` the “activity, negative = inhibition” value was inactive: 0.249%.
In the case of `O=C(NCCCN1CCCC1=O)c1cc(NS(=O)(=O)c2ccc(F)cc2)cc(NS(=O)(=O)c2ccc(F)cc2)c1`, the Potency is reported as active: 8.49 µM.
